US20250059201A1, “CAMPTOTHECIN COMPOUND AND CONJUGATE THEREOF” (priority 2021, published 2025)

Experiments:
[1] = tested on: HT1376 human bladder cancer cells; assay: Therapeutic effect on subcutaneous tumor in nude mice (bladder cancer model); assay type: in vivo; settings: for Mean tumor volume (mm^3) D 0: D 0 (baseline)
Procedure: HT1376 human bladder cancer cells purchased from the cell bank in Chinese academy of sciences were used. HT1376 cells were cultured in 10-cm culture dishes for adherent culture, in RPMI 1640 containing 10o Fetal Bovine Serum with penicillin and streptomycin supplemented, at 37° C. in an incubator containing 500 CO2. The cells were passaged 2-3 times in one week, and when in exponential growth phase, they were digested using trypsin, harvested, counted and inoculated.
A comparison study was performed between groups of different doses of antibody-drug conjugate Trop2-ADC-14 which was taken as an example (Table 14). Mice were administered with the ADC via intravenous injection (IV), at an administration volume of 10 mL/kg; the mice in the group of vehicle were administered with the same volume of vehicle (saline). Tumor volumes were measured 2 times per week, and the mice were weighed and the data were recorded.
When the experiment was completed, the experiment achieved the end point, or the tumor volume achieved 2000 mm^3, the animals were sacrificed under CO2 anesthesia and the tumors were dissected and photographed. Results are shown in Table 14 and FIG. 3, in which the growth changes in tumor volume of mice in each group are shown.

HT-29 = assay: Proliferation-inhibiting effect on tumor cells (SRB or MTT assay); assay type: cell-based, human; settings: HT-29, 144 hours
Procedure: (§1) For cells growing by adherence, SRB assay was used to detect effect of antibody-drug conjugates or camptothecins on the proliferation of tumor cells in vitro cultured. A certain number of cells in exponential growth phase were inoculated in 96-well cell culture plates, and when the cells grew by adherence overnight, antibody drug conjugates or camptothecins of different concentrations were added into the cells. 144 hours later, the cells were fixed with trichloroacetic acid, and then stained with SRB (prepared in 1% glacial acetic acid at a concentration of 4 mg/mL). 10 mM Tris solution was added into each well to solubilize the bound SRB. OD values at 510 nm were read on a microplate reader.
(§2) Inhibition (%)=([…] of control well−OD value of dosed well)/OD value of control well×100%
(§3) For cells growing in suspension, MTT assay was used to detect effect of antibody-drug conjugates or camptothecins on the proliferation of tumor cells in vitro cultured. A certain number of cells in exponential growth phase were inoculated in 96-well cell culture plates, and when the cells grew in suspension overnight, antibody-drug conjugates or camptothecins of different concentrations were added into the cells. 144 hours later, MTT was added to each well of the plates, and the incubation was continued for 4 hours at 37° C. in a 5% CO2 saturated humidity incubator. Next, 100 μL of SDS-isobutanol-HCl solution was added into each well of the plates, and OD values at 570 nm and 690 nm were read on a microplate reader.
(§4) Half maximal inhibitory concentration (IC50) was calculated from the inhibition (%) at those different concentrations using the software Graphpad Prism 8.0. The experiment was repeated once and the data was expressed as mean±SD.

HT1376 = assay: as above; assay type: cell-based, human; settings: HT1376, 144 hours
Procedure: as §1, §2, §3, §4

BxPC-3 = assay: as above; assay type: cell-based, human; settings: BxPC-3, 144 hours
Procedure: as §1, §2, §3, §4

NCI-N87 = assay: as above; assay type: cell-based, human; settings: NCI-N87, 144 hours
Procedure: as §1, §2, §3, §4

Calu-3 = assay: as above; assay type: cell-based, human; settings: Calu-3, 144 hours
Procedure: as §1, §2, §3, §4

Colo 205 = assay: as above; assay type: cell-based; settings: Colo 205, 144 hours
Procedure: as §1, §2, §3, §4

MDA-MB-231/TROP2 = assay: as above; assay type: cell-based; settings: MDA-MB-231/TROP2, 144 hours
Procedure: as §1, §2, §3, §4

MCF-7 = assay: as above; assay type: cell-based; settings: MCF-7, 144 hours
Procedure: as §1, §2, §3, §4

BT-20 = assay: as above; assay type: cell-based; settings: BT-20, 144 hours
Procedure: as §1, §2, §3, §4

MDA-MB-468 = assay: as above; assay type: cell-based; settings: MDA-MB-468, 144 hours
Procedure: as §1, §2, §3, §4

MDA-MB-231 = assay: as above; assay type: cell-based; settings: MDA-MB-231, 144 hours
Procedure: as §1, §2, §3, §4

BT-474 = assay: as above; assay type: cell-based; settings: BT-474, 144 hours
Procedure: as §1, §2, §3, §4

[2] = read-out: IC50 (nM) 1st experiment
[3] = read-out: IC50 (nM) 2nd experiment

B1: Trop2-ADC-14 (conjugate)
heavy: QVQLVQSGAEVKKPGASVKVSCKASGYTFTSYWMHWVRQAPGQGLEWMGEITPSDNYGSYNQKFKGRVTITRDTSTSTAYMELSSLRSEDTAVYYCARGHGNYVSFDYWGQGTLVTVSSASTKGPSVFPLAPSSKSTSGGTAALGCLVKDYFPEPVTVSWNSGALTSGVHTFPAVLQSSGLYSLSSVVTVPSSSLGTQTYICNVNHKPSNTKVDKRV[not shown - human IgG1 Fc]
light: DIQMTQSPSSLSASVGDRVTITCRASQDISNYLNWYQQKPGKAPKLLIYYTSRLESGVPSRFSGSGSGTDFTLTISSLQPEDFATYFCQQGYTLPPYTFGQGTKLEIKRTVAAPSVFIFPPSDEQLKSGTASVVCLLNNFYPREAKVQWKVDNALQSGNSQESVTEQDSKDSTYSLSSTLTLSKADYEKHKVYACEVTHQGLSSPVTKSFNRGEC
B1 was tested. Which “Mean tumor volume (mm^3) D 0” value ([1]; 1 mg/kg IV) did it give?
The value was 126.07 mm^3.

And the “Mean tumor volume (mm^3) D 21” value ([1]; 1 mg/kg IV)?
Its value is 601.9 mm^3.

What about the “TGI (%) D 21” value ([1]; 1 mg/kg IV) of the same molecule?
Its value is 49%.

What about the “Mean tumor volume (mm^3) D 0” value ([1]; 3 mg/kg IV) of the same molecule?
Its value is 125.82 mm^3.

And the “Mean tumor volume (mm^3) D 21” value ([1]; 3 mg/kg IV)?
The value was 130.38 mm^3.

And the “TGI (%) D 21” value ([1]; 3 mg/kg IV)?
Its value is 100%.

What about the “Mean tumor volume (mm^3) D 0” value ([1]; 10 mg/kg IV) of the same molecule?
The value was 124.94 mm^3.

And the “Mean tumor volume (mm^3) D 21” value ([1]; 10 mg/kg IV)?
The value was 82.6 mm^3.

And the “TGI (%) D 21” value ([1]; 10 mg/kg IV)?
The value was 134%.

And the IC50 (HT-29; [2])?
The IC50 was > 654 nM.

What about the IC50 (HT-29; [3]) of the same molecule?
Its IC50 is > 654 nM.

What about the IC50 (HT-29; read-out: IC50 (nM) Mean ± SD) of the same molecule?
Its IC50 is > 654 nM.

And the IC50 (HT1376; [2])?
The IC50 was 0.24 nM.

And the IC50 (HT1376; [3])?
Its IC50 is 0.2 nM.

What about the IC50 (HT1376; read-out: IC50 (nM) Mean ± SD) of the same molecule?
Its IC50 is 0.22 ± 0.03 nM.

What about the IC50 (BxPC-3; [2]) of the same molecule?
Its IC50 is 0.09 nM.

What about the IC50 (BxPC-3; [3]) of the same molecule?
The IC50 was 0.1 nM.

And the IC50 (BxPC-3; read-out: IC50 (nM) Mean ± SD)?
The IC50 was 0.09 ± 0.01 nM.

And the IC50 (NCI-N87; [2])?
The IC50 was 0.4 nM.

What about the IC50 (NCI-N87; [3]) of the same molecule?
Its IC50 is 0.54 nM.

What about the IC50 (NCI-N87; read-out: IC50 (nM) Mean ± SD) of the same molecule?
The IC50 was 0.47 ± 0.1 nM.

And the IC50 (Calu-3; [2])?
Its IC50 is 3.2 nM.

And the IC50 (Calu-3; [3])?
The IC50 was 3.5 nM.

And the IC50 (Calu-3; read-out: IC50 (nM) Mean ± SD)?
The IC50 was 3.35 ± 0.21 nM.

What about the IC50 (Colo 205; [2]) of the same molecule?
Its IC50 is > 65.4 nM.

And the IC50 (Colo 205; [3])?
The IC50 was > 65.4 nM.

And the IC50 (Colo 205; read-out: IC50 (nM) Mean ± SD)?
Its IC50 is > 65.4 nM.

And the IC50 (MDA-MB-231/TROP2; [2])?
Its IC50 is 0.05 nM.

And the IC50 (MDA-MB-231/TROP2; [3])?
The IC50 was 0.11 nM.

And the IC50 (MDA-MB-231/TROP2; read-out: IC50 (nM) Mean ± SD)?
The IC50 was 0.08 ± 0.05 nM.

What about the IC50 (MCF-7; [2]) of the same molecule?
The IC50 was > 65.4 nM.

And the IC50 (MCF-7; [3])?
The IC50 was > 65.4 nM.

And the IC50 (MCF-7; read-out: IC50 (nM) Mean ± SD)?
The IC50 was > 65.4 nM.

What about the IC50 (BT-20; [2]) of the same molecule?
Its IC50 is > 65.4 nM.

And the IC50 (BT-20; [3])?
Its IC50 is > 65.4 nM.

What about the IC50 (BT-20; read-out: IC50 (nM) Mean ± SD) of the same molecule?
Its IC50 is > 65.4 nM.

What about the IC50 (MDA-MB-468; [2]) of the same molecule?
Its IC50 is 7.26 nM.

And the IC50 (MDA-MB-468; [3])?
Its IC50 is 5.13 nM.

And the IC50 (MDA-MB-468; read-out: IC50 (nM) Mean ± SD)?
Its IC50 is 6.2 ± 1.51 nM.

And the IC50 (MDA-MB-231; [2])?
Its IC50 is > 654 nM.

What about the IC50 (MDA-MB-231; [3]) of the same molecule?
Its IC50 is > 654 nM.

What about the IC50 (MDA-MB-231; read-out: IC50 (nM) Mean ± SD) of the same molecule?
The IC50 was > 654 nM.

What about the IC50 (BT-474; [2]) of the same molecule?
The IC50 was > 65.4 nM.

And the IC50 (BT-474; [3])?
Its IC50 is > 65.4 nM.

What about the IC50 (BT-474; read-out: IC50 (nM) Mean ± SD) of the same molecule?
Its IC50 is > 65.4 nM.

Read-outs that look alike come from different tables or passages of the source.
